Source: PubChem BioAssay AID360 (National Center for Advancing Translational Sciences (NCATS), 2006)
Hit rate of the full screen: of about 48,000 compounds, about 550 (1.1%) were called active. Not shown: some 4% with an inconclusive outcome. Cut-off read from the data, not from the text of the source: active = potency below about 15 µM; inconclusive = mostly about 16 µM to 33 µM; inactive = weaker than that. This is one part of the list.

Target: Lysosomal acid glucosylceramidase (Homo sapiens) (UniProt P04062)
Assay: Glucocerebrosidase;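 note: the screen sought inhibitors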
Settings: purified enzyme, resorufin glucoside fluorescence (screen aimed at inhibitors), 20 min; series mostly up to 77 µM
Excerpt: NCGC Assay Overview: Beta-glucocerebrosidase catalyzes the hydrolysis of beta-glucocerebroside to glucose and ceramide. The inherited deficiency of beta-glucocerebrosidase results in Gaucher disease, which is characterized by a wide variety of symptoms including hepatosplenomegaly, anemia, thrombocytopenia, bony lesions and bone marrow infiltration with characteristic storage cells, known as Gaucher cells. There are also forms of the disorder affecting the central nervous system. Patients with the same genotypes can manifest with diverse clinical presentations and it is believed that improper folding and trafficking of beta-glucocerbrosidase may contribute to the phenotypes observed. Low molecular weight molecules, acting as chaperones, may potentially restore trafficking of misfolded beta-glucocerebrosidase from the endoplasmic reticulum to the lysosomes, thereby enhancing functional lysosomal beta-glucocerebrosidase activity. Using normal beta-glucocerebrosidase, an assay was developed to screen for small molecule inhibitors that could potentially act as molecular chaperones on the mutant forms [developed with NIH investigator Dr. Ellen Sidransky's laboratory]. Two pro-fluorescent substrates were chosen for two screens against a small molecule library. One beta-glucocerebrosidase assay used Resorufin beta-D-Glucopyranoside (Marker Gene Technology Inc.), generating a red fluorescent product. The second assay used Fluorescein di-beta-D-Glucopyranoside, generating a blue fluorescent product. […] The IC50 values of Conduritol B Epoxide, a known glucocerebrosidase inhibitor, were determined to be 87.5 uM and 117 uM, respectively. The use of two difference pro-fluorescent substrates in the screens helped to eliminate false positives. All compounds were screened in a titration series resulting in AC50s (e.g., IC50s or EC50s).
NCGC Assay Protocol Summary: Both enzyme and substrate were diluted in buffer composed of 50mM citric acid/KH2PO4, 10mM sodium taurocholate and 0.01% tween-20 at pH 5.9. The final concentration of the enzyme was 0.2 nM in both assays. The compound library was titrated in 7 to 15 concentrations for the primary screens with a final concentration ranging from 0.6 nM to 50 uM. This particular assay protocol is for the "red" substrate, and it was performed in 1536-well plate format as follows: Red fluorescence substrate assay: 2 uL enzyme 23 nL compound 1 uL substrate (final concentration of 30 uM) Incubate at room temperature (RT) for 20 minutes Read the plate in Viewlux plate reader (Ex=548(7) and Em=600(10)).
Potency is the fitted concentration of half-maximal effect.

Sequence of UniProt P04062 (P04062 whole entry, looked up): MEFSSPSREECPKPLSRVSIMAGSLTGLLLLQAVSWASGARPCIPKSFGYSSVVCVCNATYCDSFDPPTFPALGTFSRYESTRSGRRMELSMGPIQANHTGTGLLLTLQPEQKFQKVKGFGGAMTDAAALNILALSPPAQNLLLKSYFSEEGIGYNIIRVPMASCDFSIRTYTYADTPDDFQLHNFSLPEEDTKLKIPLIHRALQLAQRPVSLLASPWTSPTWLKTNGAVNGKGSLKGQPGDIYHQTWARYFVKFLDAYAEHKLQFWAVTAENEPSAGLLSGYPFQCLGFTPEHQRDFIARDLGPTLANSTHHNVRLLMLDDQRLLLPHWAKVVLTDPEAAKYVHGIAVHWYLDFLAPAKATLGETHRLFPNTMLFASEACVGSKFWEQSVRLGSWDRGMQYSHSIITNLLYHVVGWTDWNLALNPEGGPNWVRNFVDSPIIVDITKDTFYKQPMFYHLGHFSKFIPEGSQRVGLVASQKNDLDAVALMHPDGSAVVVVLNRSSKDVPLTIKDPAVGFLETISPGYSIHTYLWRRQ

Potency, inactive:
Cc1ccccc1-c1nc(CN2CCC(C(=O)NCC3CCCO3)CC2)c(C)o1 (configuration not stated) > 76.9 µM
O=C(Oc1cccc2cccnc12)c1cccs1 > 76.9 µM
CCn1c(SCC(=O)NCc2ccco2)nc2c1c(=O)n(C)c(=O)n2C > 76.9 µM
O=S(=O)(c1ccc2c(c1)OCCO2)N1CCC(c2nc3ccc(Cl)cc3[nH]2)CC1
CC1CN(Cc2ccc(C#N)cc2Cl)CC(C)O1 (configuration not stated) > 76.9 µM
c1ccc(-c2nc3ccccc3nc2-c2ccccn2)nc1 > 76.9 µM
O=C1CCCC2=C1C(c1ccsc1)CC(=O)N2c1ccccc1 (configuration not stated) > 76.9 µM
COc1ccc(CNC(=O)CN(CC2CCCO2)C(=O)CNS(=O)(=O)c2ccc(F)cc2)cc1 (configuration not stated) > 76.9 µM
COc1ccccc1CCC(=O)Nc1nc2ccccc2[nH]1 > 76.9 µM
COCCCn1cnc2c(c1=O)c1nc3ccccc3nc1n2-c1ccc(C)cc1 > 76.9 µM
COCCN1C(=O)C(O)=C(C(C)=O)C1c1ccc(F)cc1 (configuration not stated) > 76.9 µM
O=C(O)c1ccccc1C(=O)NCc1cccnc1 > 76.9 µM
Cc1cccn2c(N)c(-c3ccccc3)nc12 > 76.9 µM
O=C1c2ccccc2C(O)N1Cc1ccccc1 (configuration not stated) > 76.9 µM
O=C(Nc1ccc2c(c1)OCCO2)C1CCCN(S(=O)(=O)Cc2ccccc2)C1 (configuration not stated) > 76.9 µM
O=C1c2ccccc2C(=O)N1Cc1ccc2c(c1)OCO2 > 76.9 µM
CN(C)CC1(c2ccccc2)CCCC1 > 76.9 µM
COc1ccccc1Cc1noc(COc2cccc(C)c2C)n1 > 76.9 µM
CCOc1cccc2cc(C(=O)NCc3cccnc3)c(=O)oc12 > 76.9 µM
O=C1c2cccc3c(N4CCCCC4)ccc(c23)C(=O)N1c1ccccn1 > 76.9 µM
CCCN(CCO)Cc1cccc(Br)c1 > 76.9 µM
O=C(CCCC(=O)N(CC(=O)NC1CCCC1)Cc1ccc(F)cc1)Nc1ccccn1 > 76.9 µM
CCOC(=O)N1CCN(Cc2ccccc2F)CC1 > 76.9 µM
CS(=O)(=O)N(CC(=O)O)c1cc(Cl)cc(Cl)c1 > 76.9 µM
Cc1nc2sc(C)c(C)c2c(=O)[nH]1 > 76.9 µM
Cc1cc(NC(=O)CSc2nc3ccsc3c(=O)n2CCCCC(=O)O)no1 > 76.9 µM
O=c1ccc2cc(S(=O)(=O)Nc3ccc(F)cc3)ccc2o1 > 76.9 µM
